Test results from article PMC4336329 (PLoS ONE, 2015).
The campaign covered roughly 310,000 compounds. About 14,000 (4.5%) showed an effect of 50% or more. Effects have a minus sign here. Some of the results follow.

Each molecule was assayed against human ether-à-go-go-related gene (hERG) potassium channel (human, UniProt Q12809) (assay: primary screen, population patch clamp on CHO cells stably expressing hERG).
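Also: peak tail current of the secondary pulse compared with the same well before compound.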

Chain of human ether-à-go-go-related gene (hERG) potassium channel (Q12809 whole entry, looked up): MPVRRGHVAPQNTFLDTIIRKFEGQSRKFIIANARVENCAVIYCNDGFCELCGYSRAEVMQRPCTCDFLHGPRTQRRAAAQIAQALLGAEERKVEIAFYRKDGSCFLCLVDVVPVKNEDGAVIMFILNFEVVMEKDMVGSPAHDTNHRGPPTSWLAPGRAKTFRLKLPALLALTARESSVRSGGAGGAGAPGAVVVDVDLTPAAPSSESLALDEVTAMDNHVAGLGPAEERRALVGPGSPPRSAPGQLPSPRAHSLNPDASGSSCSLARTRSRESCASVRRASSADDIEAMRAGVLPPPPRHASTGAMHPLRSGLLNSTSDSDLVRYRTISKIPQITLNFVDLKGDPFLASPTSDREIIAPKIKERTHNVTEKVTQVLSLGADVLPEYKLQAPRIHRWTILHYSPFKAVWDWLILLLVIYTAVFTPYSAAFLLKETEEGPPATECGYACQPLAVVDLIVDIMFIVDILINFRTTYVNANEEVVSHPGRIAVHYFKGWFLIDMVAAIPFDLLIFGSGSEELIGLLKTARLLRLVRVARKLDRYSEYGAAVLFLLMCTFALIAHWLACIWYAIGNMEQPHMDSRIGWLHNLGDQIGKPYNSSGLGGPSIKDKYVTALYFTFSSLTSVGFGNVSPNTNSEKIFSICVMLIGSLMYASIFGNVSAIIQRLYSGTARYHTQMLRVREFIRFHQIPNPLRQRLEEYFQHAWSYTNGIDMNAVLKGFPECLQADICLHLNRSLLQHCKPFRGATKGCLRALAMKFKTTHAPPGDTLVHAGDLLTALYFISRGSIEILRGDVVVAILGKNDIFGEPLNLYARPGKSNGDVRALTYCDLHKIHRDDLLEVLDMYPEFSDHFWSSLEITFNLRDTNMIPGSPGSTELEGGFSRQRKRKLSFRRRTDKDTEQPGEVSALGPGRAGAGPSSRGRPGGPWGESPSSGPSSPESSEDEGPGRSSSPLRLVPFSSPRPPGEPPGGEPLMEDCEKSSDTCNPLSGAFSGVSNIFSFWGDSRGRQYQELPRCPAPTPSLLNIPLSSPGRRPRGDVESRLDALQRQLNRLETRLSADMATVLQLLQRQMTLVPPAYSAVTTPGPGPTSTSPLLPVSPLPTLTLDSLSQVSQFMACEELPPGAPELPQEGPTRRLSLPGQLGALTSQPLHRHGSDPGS

Row | Compound | hERG current change (%, negative = inhibition) at 10uM [%]
1 | CC1CCN(S(=O)(=O)c2ccccc2)CC1 | -3.32
2 | FCCCOc1ccc(-c2nccc(-c3ccc(F)cc3)n2)cc1 | -1.06
3 | CN(Cc1ccc(Cl)s1)C(=O)CCl | -35
4 | Cc1cc(N/N=C/c2ccccc2Cl)nc(NCc2ccccc2)n1 | -0.242
5 | CCO[C@H]1OC(C(=O)N2CCOCC2)=C[C@@H](C2CC2)[C@@H]1CCCO | 19.9
6 | Cc1ccc(-n2c(C)cc(/C=C3/C(=O)NC(=O)N(Cc4ccco4)C3=O)c2C)cc1 | 17.5
7 | CCCc1[nH]nc2c1C(c1ccc(OC(=O)N3CCOCC3)cc1)C(C#N)=C(N)O2 (stereo not shown) | 4.04
8 | CCCCCCn1c(-c2cccs2)n[nH]c1=S | -12.1
9 | COc1cccc(NC2=NCCCS2)c1 | 5.9
10 | CCOC(=O)c1c(C)nn(-c2ccc(NC(=O)c3c(C)noc3C)cc2)c1C | 16.9
11 | CCn1c(SCC(=O)Nc2ccc3c(c2)OCCO3)nnc1C(C)C | 8.55
12 | CC(C)CCn1c(N)c(S(=O)(=O)c2cccs2)c2nc3ccccc3nc21 | -5.06
13 | Cc1cc(OCC(=O)Nc2cc(S(=O)(=O)N3CCOCC3)ccc2N2CCCC2)ccc1C(C)C | -1.3
14 | COc1ccccc1-c1cc(C(=O)NC2CCN(C)CC2)c2ccc(Cl)c(C)c2n1 | -42
15 | COc1cc(NC(=O)COc2cccc(C)c2C)ccc1NC(=O)c1ccco1 | 13
16 | COc1cccc(C(=O)Cn2c(N3CCOCC3)nc3c2c(=O)n(C)c(=O)n3C)c1 | 7.88
17 | Cc1ccc(C)c(NS(=O)(=O)c2cc(C(=O)N3CCCC3)ccc2Cl)c1 | -22.4
18 | CCN(CC)c1ccc(/C=N/OCC(=O)N2CCCc3ccccc32)cc1 | 18
19 | NS(=O)(=O)c1ccc(CCN2C(=O)/C(=C\c3ccc(Cl)cc3)SC2=S)cc1 | 7.74
20 | O=C1CCC/C(=N/NC(=O)c2sc3ccccc3c2Cl)C1 | 5.82

Row | Compound | hERG current change (%, negative = inhibition) at 10uM [%]
21 | Cc1ccc(-n2ncc3c2ncn2c(C)nnc32)cc1C | -10.5
22 | O=C(NCCc1ccccc1)c1ccccc1F | 24.5
23 | COC(=O)c1ccccc1NC(=O)c1ccc(COc2cc(C)cc(C)c2)o1 | 1.12
24 | O=C(N1CCCCCC1)N1CCN(C(=O)N2CCOCC2)CC1 | -6.82
25 | CC(=O)c1cc(-c2ccc(F)cc2)n(CCC(=O)NC(C)(C)C)c1C | -9.87
26 | Cc1ccc(Nc2nc(C)nc3c2oc2ccccc23)cc1 | 10.7
27 | CCOc1ccc(OCC)c(NC(=O)CN2CCN(c3cccc(C)c3)C(C)C2)c1.Cl (stereo not shown) | 5.61
28 | Cc1cc(C)n2ncc(C(=O)NCc3cccnc3)c2n1 | 3.31
29 | COc1ccc(C(=O)Nc2ccccc2C(=O)O)cc1NC(=O)C(c1ccccc1)c1ccccc1 | 8.41
30 | CCC(NC(=O)N(Cc1ccccc1)Cc1ccc2c(c1)OCO2)(C(F)(F)F)C(F)(F)F | -11
31 | O=C(COc1ccc2ccc(=O)oc2c1)c1ccccc1 | 15.6
32 | COc1cc(SC)ccc1C(=O)Nc1ccc(C)cc1C | 5.2
33 | CCOC(=O)N1CCC(NC(=O)c2cc(S(=O)(=O)N3CCOCC3)ccc2F)CC1 | -10.6
34 | O=C(CN1CCN(c2ccc(Cl)cc2[N+](=O)[O-])CC1)N1CCOCC1 | -33.6
35 | COc1ccc(OCCC(=O)NC2=NCCS2)cc1 | -1.4
36 | CCCC(=O)C1C(=O)NC(=O)NC1=O | 27.6
37 | COc1ccc(N2CCN(CC(O)COc3ccc(F)cc3)CC2)cc1.Cl (stereo not shown) | -69.9
38 | COc1ccc(S(=O)(=O)N2CCOCC2)cc1NC(=O)CN1C(=O)NC(C)(C2CC2)C1=O (stereo not shown) | 14.5
39 | Cc1cc(C)nc(N/N=C/c2cn[nH]c2-c2ccc(F)cc2)n1 | 8.66
40 | COc1ccc(CNS(=O)(=O)NCc2ccc(C)cc2)cc1OC | -13.8

Row | Compound | hERG current change (%, negative = inhibition) at 10uM [%]
41 | COc1ccc(NCc2cc(=O)[nH]c3ccccc23)cc1 | 5.37
42 | Clc1ccccc1CSc1ncccn1 | -6.09
43 | CCN(NC(=O)C(O)(c1ccccc1)c1ccccc1)C(=O)c1ccccc1 | 0.711
44 | C=C1SC(Nc2c(C)cc(C)cc2C)=NC12CCCCC2 | 6.2
45 | COc1ccc(NC(=O)C/C(C)=N/NC(=O)C(=O)Nc2cccc(Cl)c2C)c(OC)c1 | 0.705
46 | CC1(C)Cc2cccc(OCC(O)CNCc3ccccn3)c2O1.Cl (stereo not shown) | -25.1
47 | O=C(NCc1nnnn1-c1ccc(F)c(F)c1)c1ccc2c(c1)OCO2 | 7.43
48 | O=C(CCn1c(=S)oc2ccccc21)Nc1ccccc1Br | 18.9
49 | O=C1c2ccccc2NC2(CCCC2)N1O | -2.23
50 | CC1(C)Cc2c(cnn2-c2ccccc2)C(NC(=O)CCCN2CCCCC2=O)C1 (stereo not shown) | 9.01
51 | C[C@H](NC(=O)c1nc[nH]c1C(=O)NCC(=O)OC(C)(C)C)c1ccccc1 | -8.21
52 | C/C(Nc1ccc(C)cc1)=C(/C#N)C(N)=O | 5.72
53 | Cc1ccc(CC(=O)OCCNC(=O)c2cccnc2)cc1.Cl | -1.83
54 | Cc1ccc(NC(=O)CCCC(=O)O)c(-c2nc3ccccc3[nH]c2=O)c1 | 8.05
55 | CCN1CCN(CC(=O)N2N=C(c3cccs3)CC2c2ccc(C)cc2)C(=O)C1=O (stereo not shown) | -31
56 | COc1ccccc1CNC(=O)C/C(C)=N/NC(=O)Cc1ccccc1 | -14
57 | O=C(c1cc(-c2ccccc2)on1)N1CCCc2ccccc21 | -18.1
58 | CC(C)(C)c1ccccc1OCCOCCSc1ncccn1 | -3.85
